From paper PMC7819943, “Rice protein-binding microarrays: a tool to detect cis-acting elements near promoter regions in rice”
Some of the results follow.

Target: T1, OsWOX13 (Oryza sativa, UniProt Q5QMM3 1-267)
T1 sequence: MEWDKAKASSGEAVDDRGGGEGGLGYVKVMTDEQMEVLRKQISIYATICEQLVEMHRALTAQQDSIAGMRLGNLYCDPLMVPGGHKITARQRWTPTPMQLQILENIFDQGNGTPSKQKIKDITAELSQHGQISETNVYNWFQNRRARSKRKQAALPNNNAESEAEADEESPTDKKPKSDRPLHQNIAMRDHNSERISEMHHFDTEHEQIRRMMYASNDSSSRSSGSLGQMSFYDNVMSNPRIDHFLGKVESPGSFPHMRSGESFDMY
Assay: protein-binding microarray (RPBM); PBS, 2% BSA, 51.3 ng/ul salmon testes DNA, 50 uM zinc acetate, 200 nM TF, 25 C, 1 h; high values mean tight binding
Conditions: protein: recombinant; tags: N-terminal polyhistidine and DsRed monomer fusion (pET32a); label: CyDye5-dUTP incorporated in the synthesized complementary strand; 3' TTTTT single-stranded linker to array surface; dsDNA, one strand shown
Outline: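 Per-feature fluorescence intensity (arbitrary units), read on an Axon 4000B scanner, is the binding signal. Transcription factors carrying an N-terminal polyhistidine tag and DsRed fusion were expressed in E. coli BL21-CodonPlus and purified on Ni–NTA. A custom Agilent array, made double-stranded by primer extension with Cy5-dUTP and blocked with 2% BSA, was incubated with 200 nM protein in PBS, 2% BSA, salmon testes DNA and 50 µM zinc acetate at 25 °C for 1 h and then washed.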

Row | Sequence | binding signal
1 | TTTCTCCAATTATATCATAATAACCATTTAACTTAAACAACGGAGTCACCTAGTGCAG | 4530 fluorescence intensity (a.u.)
2 | TACCAAATTAAGCCATTTTGATAGTGACCTCAGTAGATCCCGGAGTCACCTAGTGCAG | 7940 fluorescence intensity (a.u.)
3 | TAGAATTGATAATGTTTAACGCATTACTCTCGATTGGGAGCGGAGTCACCTAGTGCAG | 19600 fluorescence intensity (a.u.)
4 | CGAATTTGCAAATTACGTATTGAGATCCCTAAACTTGATTCGGAGTCACCTAGTGCAG | 8840 fluorescence intensity (a.u.)
5 | TCTGATTTAACTGCATTGCATTTGTGTCATTGACATGTGGCGGAGTCACCTAGTGCAG | 42600 fluorescence intensity (a.u.)
6 | AACGCAATCATCGAAACAGACCAACTGCACGTCTGCACAGCGGAGTCACCTAGTGCAG | 6840 fluorescence intensity (a.u.)
7 | CTAGAATCAATCAAACAATCCTTGCAATTCCCCAACCCTACGGAGTCACCTAGTGCAG | 15300 fluorescence intensity (a.u.)
8 | CTTAAAATTATGGTAGATCAAAGACAAAATGATCAATAGCCGGAGTCACCTAGTGCAG | 3980 fluorescence intensity (a.u.)
9 | ACAACTAATTTAACACGAACAATCAACCTAGATTTTCCCGCGGAGTCACCTAGTGCAG | 24000 fluorescence intensity (a.u.)
10 | AAGCCTAATTAACGAGAGCTGCTGCTAGCTGGCTCAGGCTCGGAGTCACCTAGTGCAG | 8820 fluorescence intensity (a.u.)
11 | TCATTTAATTAGATCTTCATTTCCATCCAGCGTACTTAAACGGAGTCACCTAGTGCAG | 19400 fluorescence intensity (a.u.)
12 | CCAATCAATCAAGCAGCTGCTGGCTAGCTAGCTTGCACTGCGGAGTCACCTAGTGCAG | 30700 fluorescence intensity (a.u.)
13 | ACAATGATTTGTCAACACCTTTCTGCACAATGTATATATCCGGAGTCACCTAGTGCAG | 19000 fluorescence intensity (a.u.)
14 | TGTTTTACTCTCAATCTAGATTGTTTTAGATCAATTATAACGGAGTCACCTAGTGCAG | 4880 fluorescence intensity (a.u.)
15 | ACATAACATATGAGATTGAAATTTCTTGAACCATACATTACGGAGTCACCTAGTGCAG | 9950 fluorescence intensity (a.u.)
16 | CGTTCTAGGCCACTAAATTGACACGACAGGGCCGGGTTAGCGGAGTCACCTAGTGCAG | 12300 fluorescence intensity (a.u.)
17 | CTAAAACCGGATCAATTGACATCCCTCGACGGTTTACATTCGGAGTCACCTAGTGCAG | 4700 fluorescence intensity (a.u.)
18 | TGTTAATGAAATCAATACGAATGTGGAAAATGCTAGAATGCGGAGTCACCTAGTGCAG | 6160 fluorescence intensity (a.u.)
19 | ATTCATTAACATTAATATAAATGTAGAAAATGATAGAATGCGGAGTCACCTAGTGCAG | 4520 fluorescence intensity (a.u.)
20 | ATTAGTAGATAATCTATAAATCAATTCGTAGATTACTTACCGGAGTCACCTAGTGCAG | 5400 fluorescence intensity (a.u.)
21 | AGATGTCTGTTAATTTCCACCCCTCATTTGCCAATACCAACGGAGTCACCTAGTGCAG | 4190 fluorescence intensity (a.u.)

Row | Sequence | binding signal
22 | ATTATTGATTTGATGAAACTAATTTAGTATTATAAATATTCGGAGTCACCTAGTGCAG | 34600 fluorescence intensity (a.u.)
23 | TTGGATTGGAGTGATTGCGCTTTTGGAGAAATTGGTTTTGCGGAGTCACCTAGTGCAG | 45700 fluorescence intensity (a.u.)
24 | CAGTAACTTTTAATTAGTTACTGCTCGCGGCGGCAGATGCCGGAGTCACCTAGTGCAG | 10500 fluorescence intensity (a.u.)
25 | TCTAAAGAAATTTTCTCTGTCAATAGATGATTCCATCACCCGGAGTCACCTAGTGCAG | 3900 fluorescence intensity (a.u.)
26 | TTTTAGGATGATTTAATTGTAAATTTAAAATTAAAATGGTCGGAGTCACCTAGTGCAG | 35400 fluorescence intensity (a.u.)
27 | CACTAATGTTCAACTGCCAATCTATTGTAGTACAGCAAGCCGGAGTCACCTAGTGCAG | 8980 fluorescence intensity (a.u.)
28 | TAAATTCTGCTTAGACATAATTGTGTATCTGTGCTCAAAGCGGAGTCACCTAGTGCAG | 3530 fluorescence intensity (a.u.)
29 | AACCGAAAATTATTATTTTAATCGGCGTGGTGTCCACTGGCGGAGTCACCTAGTGCAG | 4880 fluorescence intensity (a.u.)
30 | AGTTAATTATGTGCCGGTCCCCGCTGTTGTCCACCATCCGCGGAGTCACCTAGTGCAG | 30600 fluorescence intensity (a.u.)
31 | ATGGTTAATGGACATGTTGTATCTGGTATTTCGGTTCAAGCGGAGTCACCTAGTGCAG | 8630 fluorescence intensity (a.u.)
32 | CCCTAGATTATTAATGTCCTCCTCCTCATCATCACCATCTCGGAGTCACCTAGTGCAG | 8950 fluorescence intensity (a.u.)
33 | CCACAAACGTGGCAAAGATTGACACCGAATCTCTGACGTGCGGAGTCACCTAGTGCAG | 6070 fluorescence intensity (a.u.)
34 | CTTGGTTAATTTCCTTTGAGTCTATCTCTCTCATCCAATTCGGAGTCACCTAGTGCAG | 4410 fluorescence intensity (a.u.)
35 | CTACTATTTTGAAAGTGATTGGTTCTACAAATTTCTTAGTCGGAGTCACCTAGTGCAG | 12200 fluorescence intensity (a.u.)
36 | AGTATGTACCAGCACAAATTAATTAATGCAACACACACACCGGAGTCACCTAGTGCAG | 4760 fluorescence intensity (a.u.)
37 | ATAATATGATCTGTTTAACCCAATTTAGCACTTAGAGATTCGGAGTCACCTAGTGCAG | 4790 fluorescence intensity (a.u.)
38 | CCATCTCTGATTGCAAGCGCGACTGCGCGACATCCATCCACGGAGTCACCTAGTGCAG | 11000 fluorescence intensity (a.u.)
39 | TTAATTAATTGAAAGGATATAATTTCTTTCTCGAATTAATCGGAGTCACCTAGTGCAG | 33000 fluorescence intensity (a.u.)
40 | TTTGGATTGGCCAGAACAAGATATACTTTCGAATCTTTTGCGGAGTCACCTAGTGCAG | 11300 fluorescence intensity (a.u.)
41 | CGGTGATTAAAACCGAGGTGTTCTCACGGTCGCGGCATGACGGAGTCACCTAGTGCAG | 6090 fluorescence intensity (a.u.)
42 | AGGAACATATGATTAATTAAATGTCAGCTGTAGCAATTTTCGGAGTCACCTAGTGCAG | 13000 fluorescence intensity (a.u.)
